Measurements: PubChem BioAssay AID1460 (National Center for Advancing Translational Sciences (NCATS), 2008)
Among all 270,000 compounds or so, about 5,800 (2.1%) were called active. Inconclusive means that the source gave no clear call. Such entries were picked first, then a sample of the others. Calls follow the shape of the dose curve; as a rule, active = well fitted inhibition curve with a large enough effect; inconclusive = small, poorly fitted or top-dose-only effect; inactive = flat fitted curve, though single readings scatter. Potencies beside an inconclusive call are fits to weak or partial responses and may not hold up.

Target: Microtubule-associated protein tau (Homo sapiens) (UniProt P10636)
Assay: qHTS for Inhibitors of Tau Fibril Formation, Thioflavin T Binding; also: nearly all actives have a fitted effect of over 55% in size
Conditions: recombinant tau K18 P301L (four-repeat tau fragment), heparin-induced fibrillization, ThT fluorescence; series mostly up to 57.4 µM
In short: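 In this qHTS, human K18 P301L tau is incubated with compound and heparin for 6 hr at 37 C, and Thioflavin T fluorescence then reports fibril load.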
Potency is read from the fitted curve at half-maximal effect; tags tell the direction and shape of the fitted curve.

UniProt P10636, sequence (P10636 whole entry, looked up): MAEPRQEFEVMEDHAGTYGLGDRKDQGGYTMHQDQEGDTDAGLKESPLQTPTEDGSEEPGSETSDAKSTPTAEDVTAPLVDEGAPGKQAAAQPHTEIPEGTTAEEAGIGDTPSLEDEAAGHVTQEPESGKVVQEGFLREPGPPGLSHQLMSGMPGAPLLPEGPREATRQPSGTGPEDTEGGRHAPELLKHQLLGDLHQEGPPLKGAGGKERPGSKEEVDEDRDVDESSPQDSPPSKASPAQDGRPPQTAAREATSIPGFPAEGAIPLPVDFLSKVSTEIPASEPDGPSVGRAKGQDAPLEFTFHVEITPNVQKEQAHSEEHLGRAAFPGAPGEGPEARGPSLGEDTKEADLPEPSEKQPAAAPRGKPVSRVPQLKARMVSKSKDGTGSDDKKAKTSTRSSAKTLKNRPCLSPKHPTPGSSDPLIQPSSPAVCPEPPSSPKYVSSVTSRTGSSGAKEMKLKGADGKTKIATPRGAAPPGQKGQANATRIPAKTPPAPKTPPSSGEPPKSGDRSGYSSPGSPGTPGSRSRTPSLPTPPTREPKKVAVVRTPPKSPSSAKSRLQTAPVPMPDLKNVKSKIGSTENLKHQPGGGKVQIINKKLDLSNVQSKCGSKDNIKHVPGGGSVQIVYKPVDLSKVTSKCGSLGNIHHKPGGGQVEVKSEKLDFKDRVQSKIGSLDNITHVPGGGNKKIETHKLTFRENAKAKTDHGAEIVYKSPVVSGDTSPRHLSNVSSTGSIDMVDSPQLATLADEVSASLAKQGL

Structure (SMILES)	Potency
CCn1c2ccccc2c2cc(CN3CCN(Cc4ccc(Cl)cc4)CC3)ccc21	inconclusive: 28.2 µM [inhibitor, single point]
CC(=O)c1ccc(NC(=O)C(C)n2nc(-c3ccccc3)ccc2=O)cc1 (stereo not drawn)	inactive
CC1CCN(c2nc(-c3cccnc3)nc3scc(-c4ccccc4)c23)CC1	inactive
COCC(C)n1c(C)cc(C(=O)Cn2nc(C(=O)O)c3ccccc3c2=O)c1C (stereo not drawn)	inactive
CN1/C(=C/C2CC(=O)N(c3cccc4ccccc34)C2=O)C(C)(C)c2ccccc21 (stereo not drawn)	inconclusive: 35.5 µM [inhibitor, partial curve, poor fit]
Cc1ccc2c(=O)cc(C(=O)Nc3ccc(S(=O)(=O)N4CCCCC4C)cc3)oc2c1C (stereo not drawn)	inactive
COc1ccc(CCNc2nc(-c3ccco3)cc(C(F)(F)F)n2)cc1OC	inconclusive: 28.2 µM [inhibitor, partial curve, poor fit]
Oc1ccccc1/C=N/c1c(-c2ccco2)nc2ccccn12	active: 22.4 µM
CN(C)CCCN(C(=O)c1ccco1)c1nc2c(F)cc(F)cc2s1	inactive
COCC(C)NC(=O)NC1(C(F)(F)F)Oc2ccc(Cl)cc2O1 (stereo not drawn)	inactive
CC1=C(C(=O)Nc2ccccn2)C(c2ccc(Br)cc2)NC(=S)N1 (stereo not drawn)	inactive
Cc1cc(O)c(C(c2ccccc2)N2CCN(c3ccccc3)CC2)c(=O)n1Cc1ccco1 (stereo not drawn)	inconclusive: 15.8 µM [inhibitor, single point]
O=C(/C=C/c1ccccc1)/C=C/c1ccccc1	active: 7.94 µM
COc1ccc(Nc2n[nH]c(C)c2[N+](=O)[O-])cc1	inconclusive: 14.1 µM [inhibitor, partial curve]
S=c1nc(-c2ccc(Br)cc2)[nH]c2ccccc12	inconclusive: 1.12 µM [inhibitor, full curve]
CC(=N)C1=C(O)CC(C)(C)CC1=O	inactive
Cc1sc2ncnc(Sc3ccccc3C(=O)Nc3ccc(Br)cc3)c2c1C	inconclusive: 17.8 µM [inhibitor, single point]
O=C1c2ccc3c4c(ccc(c24)C(=O)N1NC(=O)C(F)(F)F)CC3	inactive
Cc1ccc(NC(=O)COC(=O)CNC(=O)c2ccc(Br)cc2)c(C)c1	inactive
CCc1nc(Nc2ccc(F)c(Cl)c2)c2c3c(sc2n1)CCCC3	inconclusive: 28.2 µM [inhibitor, partial curve]
N#C/C(=C(/O)COc1ccccc1)c1nc2ccccc2s1	inconclusive: 14.1 µM [inhibitor, partial curve]
Cc1cccc(C)c1NC(=O)Cn1cc(C(=O)c2ccco2)c2ccccc21	inconclusive: 39.8 µM [inhibitor, single point]
Cc1cc(C)n(-c2nc(-c3ccc(Cl)cc3)cs2)n1	inconclusive: 2.51 µM [inhibitor, full curve]
COc1ccc(CCNC[C@@H](O)c2ccc(O)cc2)cc1OC	inactive

Structure (SMILES)	Potency
CCSc1nc2sc3c(c2c(=O)n1-c1ccc(OC)cc1)CCN(C)C3	inconclusive: 31.6 µM [inhibitor, partial curve]
COc1ccc(NC(=O)CCCS(=O)(=O)c2nc(-c3ccccc3OC)cc(C(F)(F)F)n2)c(OC)c1	inactive
Cc1cccc(NC(=O)c2ccc(COc3ccc4ccccc4c3)o2)n1	inconclusive: 3.16 µM [inhibitor, full curve, poor fit]
O=C(/C=C/c1ccco1)Nc1ccc(C(=O)N2CCOCC2)cc1	inactive
CN(C)c1ccc(/C=N/NC(=O)C(O)(c2ccccc2)c2ccccc2)o1	inconclusive: 14.1 µM [inhibitor, partial curve]
CCOC(=O)C1=C(C)N=c2s/c(=C/c3ccco3)c(=O)n2C1c1cccc(OC)c1 (stereo not drawn)	active: 14.1 µM
CCOC(=O)c1c(S(=O)(=O)NCC(=O)Nc2cccc(SC)c2)c(C)n(C)c1C	inactive
CC1=NN(C(=O)COc2ccccc2C)C(O)(c2ccc(Cl)cc2)C1 (stereo not drawn)	inconclusive: 10 µM [inhibitor, partial curve]
CC(C)C(=O)Nc1nnc(SCc2cccc(F)c2)s1	inactive
Cc1nc([N+](=O)[O-])c(Br)n1CC(=O)c1ccc(F)cc1	inconclusive: 15.8 µM [inhibitor, partial curve]
CCCSc1nc2sc3c(c2c(=O)n1-c1ccc(C)cc1)CCCC3	inconclusive: 31.6 µM [inhibitor, partial curve]
Cc1ccccc1-c1nc(-c2ccc(NC(=O)c3cccs3)cc2)no1	inconclusive: 1 µM [inhibitor, full curve, poor fit]
CCN(C(=O)Cn1c(=O)n(Cc2ccccc2)c(=O)c2ccccc21)c1cccc(C)c1	inconclusive: 31.6 µM [inhibitor, single point]
CC(C)C(NC(=O)c1ccc(F)cc1)C(=O)Nc1cccnc1 (stereo not drawn)	inactive
COc1cc(CCCN2C(=S)NC[C@@H]2CC2CCCCC2)cc(OC)c1OC	inactive
Cc1ccc(N=Nc2ccc(O)c3ncccc23)cc1C	inconclusive: 2 µM [inhibitor, full curve]
Cn1c(SCC(=O)N2CCOCC2)ncc(C(=O)Nc2ccc(F)cc2)c1=O	inconclusive: 14.1 µM [inhibitor, partial curve]
O=[N+]([O-])c1cc(Br)cc(/C=N/n2cnnc2)c1O	active: 8.91 µM
C/C(=C\c1ccccc1)C(=O)N1CCN(c2cccc(C(F)(F)F)c2)CC1	inconclusive: 28.2 µM [inhibitor, partial curve, poor fit]
COc1ccc(CCn2c(C)cc(C(=O)CSc3nc(N)cc(=O)[nH]3)c2C)cc1	inconclusive: 15.8 µM [inhibitor, partial curve]
O=C1/C(=C/c2cccs2)SC(=S)N1N1CCOCC1	inconclusive: 12.6 µM [inhibitor, partial curve]
CCc1ccc(NCc2cc3cc4c(cc3n(CC(=O)Nc3ccc(OC)cc3)c2=O)OCO4)cc1	inactive
FC(F)(F)c1ccncc1-c1nnnn1-c1ccc(Cl)cc1	inactive
CC(C)(C)NCC1(CO)SC(N)=NC1=O (stereo not drawn)	inactive
